Consider 40 sequences from paper PMC12820563, “FoxP3 forms a head-to-head dimer in vivo and stabilizes its multimerization on adjacent microsatellites”.

The other results are listed elsewhere or left out.

In this test the target is T1, MBP-FoxP1dN (Mus musculus, UniProt P58462 326-579).
T1 sequence: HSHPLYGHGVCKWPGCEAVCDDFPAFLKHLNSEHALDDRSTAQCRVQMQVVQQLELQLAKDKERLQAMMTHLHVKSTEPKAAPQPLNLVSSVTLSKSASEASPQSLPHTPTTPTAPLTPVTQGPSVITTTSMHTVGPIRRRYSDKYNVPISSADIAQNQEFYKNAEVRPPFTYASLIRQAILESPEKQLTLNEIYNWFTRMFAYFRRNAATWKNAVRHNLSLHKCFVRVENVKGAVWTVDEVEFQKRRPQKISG
Nature of the test: PD-seq (MBP pull-down with sequencing); 20 mM Tris-HCl pH 7.5, 100 mM NaCl, 1.5 mM MgCl2, 0.4 uM protein, 0.1 uM dsDNA library, 30 min, room temperature, amylose pull-down; high values mean tight binding. The note with it: protein: recombinant; tags: His6-MBP; chain copies: 2; dsDNA, one strand shown. The method in brief:
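A fragment of mouse FoxP3 or FoxP1 without its N-terminus, carrying a His6-MBP tag and produced in E. coli, was combined at 0.4 µM with a 0.1 µM degenerate double-stranded DNA library filled in with Klenow. The mixture sat for 30 min at room temperature in Tris pH 7.5 buffer containing NaCl and MgCl2. Protein–DNA complexes were captured on amylose resin, washed three times, and the DNA was freed with proteinase K, barcoded by PCR and sequenced on Illumina. Binding is expressed as reads-per-million enrichment of pull-down over input, with replicates pooled.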
Turning to “GATGATTGTTCTCCCAGCTGATGAATTGGATGGTTCGAGTAAACAAATTTTCCTAATCTTTCTGTTCAAGCGCCATCTAC”, the binding signal is 0.856 RPM ratio (pull-down/input).
Consider “GATGATTGTTCTCCCAGCTGATGAATTGGACAACTCGAGTAAACAAATTTTCCTAATCTTTCTGTTCAAGCGCCATCTAC”, for which the binding signal is 0.962 RPM ratio (pull-down/input).
Turning to “GATGATTGTTCTCCCAGCTGATGAATTCCCAGGGTCGAGTAAACAAATTTTCCTAATCTTTCTGTTCAAGCGCCATCTAC”, the binding signal was 0.717 RPM ratio (pull-down/input).
In the case of “GATGATTGTTCTCCCAGCTGATGAATTGGGCCACTCGAGTAAACAAATTTTCCTAATCTTTCTGTTCAAGCGCCATCTAC”, the binding signal is 0.841 RPM ratio (pull-down/input).
The result for “GATGATTGTTCTCCCAGCTGATGAATTTTGTCGATCGAGTAAACAAATTTTCCTAATCTTTCTGTTCAAGCGCCATCTAC” reads 0.973 RPM ratio (pull-down/input); that for “GATGATTGTTCTCCCAGCTGATGAATTATAGTCTTCGAGTAAACAAATTTTCCTAATCTTTCTGTTCAAGCGCCATCTAC”, 0.967 RPM ratio (pull-down/input); that for “GATGATTGTTCTCCCAGCTGATGAATTGGAGCCATCGAGTAAACAAATTTTCCTAATCTTTCTGTTCAAGCGCCATCTAC”, 0.868 RPM ratio (pull-down/input).
The value for “GATGATTGTTCTCCCAGCTGATGAATTGCCTGGGTCGAGTAAACAAATTTTCCTAATCTTTCTGTTCAAGCGCCATCTAC” was 0.843 RPM ratio (pull-down/input).
With “GATGATTGTTCTCCCAGCTGATGAATTACTGCTGTCGAGTAAACAAATTTTCCTAATCTTTCTGTTCAAGCGCCATCTAC”, the binding signal was 1.22 RPM ratio (pull-down/input).
“GATGATTGTTCTCCCAGCTGATGAATTTACGCCCTCGAGTAAACAAATTTTCCTAATCTTTCTGTTCAAGCGCCATCTAC”: the binding signal was 1.1 RPM ratio (pull-down/input).
“GATGATTGTTCTCCCAGCTGATGAATTCCGGTTATCGAGTAAACAAATTTTCCTAATCTTTCTGTTCAAGCGCCATCTAC”: the binding signal was 0.934 RPM ratio (pull-down/input).
The value for “GATGATTGTTCTCCCAGCTGATGAATTATGTGTATCGAGTAAACAAATTTTCCTAATCTTTCTGTTCAAGCGCCATCTAC” was 1.92 RPM ratio (pull-down/input); that for “GATGATTGTTCTCCCAGCTGATGAATTCTAGAGTTCGAGTAAACAAATTTTCCTAATCTTTCTGTTCAAGCGCCATCTAC” was 0.856 RPM ratio (pull-down/input); that for “GATGATTGTTCTCCCAGCTGATGAATTAACCAACTCGAGTAAACAAATTTTCCTAATCTTTCTGTTCAAGCGCCATCTAC” was 0.968 RPM ratio (pull-down/input).
Regarding “GATGATTGTTCTCCCAGCTGATGAATTCGTAGATTCGAGTAAACAAATTTTCCTAATCTTTCTGTTCAAGCGCCATCTAC”, the binding signal is 0.83 RPM ratio (pull-down/input).
As for “GATGATTGTTCTCCCAGCTGATGAATTCTTTACGTCGAGTAAACAAATTTTCCTAATCTTTCTGTTCAAGCGCCATCTAC”, the binding signal is 0.992 RPM ratio (pull-down/input).
The value for “GATGATTGTTCTCCCAGCTGATGAATTGACTTCCTCGAGTAAACAAATTTTCCTAATCTTTCTGTTCAAGCGCCATCTAC” was 0.911 RPM ratio (pull-down/input); that for “GATGATTGTTCTCCCAGCTGATGAATTTGCACTATCGAGTAAACAAATTTTCCTAATCTTTCTGTTCAAGCGCCATCTAC” was 1.15 RPM ratio (pull-down/input); that for “GATGATTGTTCTCCCAGCTGATGAATTCCTAGTATCGAGTAAACAAATTTTCCTAATCTTTCTGTTCAAGCGCCATCTAC” was 0.902 RPM ratio (pull-down/input).
“GATGATTGTTCTCCCAGCTGATGAATTTGTACTGTCGAGTAAACAAATTTTCCTAATCTTTCTGTTCAAGCGCCATCTAC”: the binding signal is 1.08 RPM ratio (pull-down/input).
As to “GATGATTGTTCTCCCAGCTGATGAATTAACGCATTCGAGTAAACAAATTTTCCTAATCTTTCTGTTCAAGCGCCATCTAC”, the binding signal is 1.23 RPM ratio (pull-down/input).
For “GATGATTGTTCTCCCAGCTGATGAATTCAGTTTATCGAGTAAACAAATTTTCCTAATCTTTCTGTTCAAGCGCCATCTAC”, the binding signal was 1.49 RPM ratio (pull-down/input).
The result for “GATGATTGTTCTCCCAGCTGATGAATTCGGTGAGTCGAGTAAACAAATTTTCCTAATCTTTCTGTTCAAGCGCCATCTAC” reads 0.85 RPM ratio (pull-down/input).
The value for “GATGATTGTTCTCCCAGCTGATGAATTCACGTAATCGAGTAAACAAATTTTCCTAATCTTTCTGTTCAAGCGCCATCTAC” was 1.38 RPM ratio (pull-down/input); that for “GATGATTGTTCTCCCAGCTGATGAATTAGCAGCCTCGAGTAAACAAATTTTCCTAATCTTTCTGTTCAAGCGCCATCTAC” was 0.873 RPM ratio (pull-down/input).
The value for “GATGATTGTTCTCCCAGCTGATGAATTTGCTATTTCGAGTAAACAAATTTTCCTAATCTTTCTGTTCAAGCGCCATCTAC” was 1.17 RPM ratio (pull-down/input); that for “GATGATTGTTCTCCCAGCTGATGAATTATCGGATTCGAGTAAACAAATTTTCCTAATCTTTCTGTTCAAGCGCCATCTAC” was 0.92 RPM ratio (pull-down/input); that for “GATGATTGTTCTCCCAGCTGATGAATTCATGGCCTCGAGTAAACAAATTTTCCTAATCTTTCTGTTCAAGCGCCATCTAC” was 0.841 RPM ratio (pull-down/input).
For “GATGATTGTTCTCCCAGCTGATGAATTGCAGTTATCGAGTAAACAAATTTTCCTAATCTTTCTGTTCAAGCGCCATCTAC”, the binding signal was 1.32 RPM ratio (pull-down/input).
The value for “GATGATTGTTCTCCCAGCTGATGAATTAAGCATTTCGAGTAAACAAATTTTCCTAATCTTTCTGTTCAAGCGCCATCTAC” was 1.12 RPM ratio (pull-down/input); that for “GATGATTGTTCTCCCAGCTGATGAATTCGGTTTATCGAGTAAACAAATTTTCCTAATCTTTCTGTTCAAGCGCCATCTAC” was 1.14 RPM ratio (pull-down/input).
The value for “GATGATTGTTCTCCCAGCTGATGAATTTAAAGAGTCGAGTAAACAAATTTTCCTAATCTTTCTGTTCAAGCGCCATCTAC” was 0.878 RPM ratio (pull-down/input).
Turning to “GATGATTGTTCTCCCAGCTGATGAATTAAACGCTTCGAGTAAACAAATTTTCCTAATCTTTCTGTTCAAGCGCCATCTAC”, the binding signal was 0.89 RPM ratio (pull-down/input).
The result for “GATGATTGTTCTCCCAGCTGATGAATTCGACTCATCGAGTAAACAAATTTTCCTAATCTTTCTGTTCAAGCGCCATCTAC” reads 0.863 RPM ratio (pull-down/input); that for “GATGATTGTTCTCCCAGCTGATGAATTCCACGGGTCGAGTAAACAAATTTTCCTAATCTTTCTGTTCAAGCGCCATCTAC”, 0.755 RPM ratio (pull-down/input).
The value for “GATGATTGTTCTCCCAGCTGATGAATTTAGTCCGTCGAGTAAACAAATTTTCCTAATCTTTCTGTTCAAGCGCCATCTAC” was 0.976 RPM ratio (pull-down/input).
The value for “GATGATTGTTCTCCCAGCTGATGAATTTTCCTAGTCGAGTAAACAAATTTTCCTAATCTTTCTGTTCAAGCGCCATCTAC” was 0.888 RPM ratio (pull-down/input); that for “GATGATTGTTCTCCCAGCTGATGAATTTTTCCGTTCGAGTAAACAAATTTTCCTAATCTTTCTGTTCAAGCGCCATCTAC” was 0.979 RPM ratio (pull-down/input); that for “GATGATTGTTCTCCCAGCTGATGAATTGCGCCTGTCGAGTAAACAAATTTTCCTAATCTTTCTGTTCAAGCGCCATCTAC” was 0.994 RPM ratio (pull-down/input).
On to “GATGATTGTTCTCCCAGCTGATGAATTGCCGGCCTCGAGTAAACAAATTTTCCTAATCTTTCTGTTCAAGCGCCATCTAC”, for which the binding signal is 0.828 RPM ratio (pull-down/input).
